Measurements published in publication PMC13225913 (Journal of medicinal chemistry, 2025).
Like-named read-outs stand apart in the source and are kept apart here. Blank lines part the entries; values can stand above or below the molecule they belong to.

Experiments:
[1] = rodents, rapid washout; cited from earlier work
[2] = target: recombinant human S1PR5 membrane (Homo sapiens, UniProt Q9H228)
[3] = target: recombinant human S1PR2 membranes (Homo sapiens, UniProt O95136); assay: biochemical
[4] = target: recombinant human S1PR3 membranes (Homo sapiens, UniProt Q99500); assay: biochemical
[5] = target: T1, recombinant human S1PR4 membranes (Homo sapiens, UniProt O95977); assay: biochemical
T1 sequence (O95977 1-384): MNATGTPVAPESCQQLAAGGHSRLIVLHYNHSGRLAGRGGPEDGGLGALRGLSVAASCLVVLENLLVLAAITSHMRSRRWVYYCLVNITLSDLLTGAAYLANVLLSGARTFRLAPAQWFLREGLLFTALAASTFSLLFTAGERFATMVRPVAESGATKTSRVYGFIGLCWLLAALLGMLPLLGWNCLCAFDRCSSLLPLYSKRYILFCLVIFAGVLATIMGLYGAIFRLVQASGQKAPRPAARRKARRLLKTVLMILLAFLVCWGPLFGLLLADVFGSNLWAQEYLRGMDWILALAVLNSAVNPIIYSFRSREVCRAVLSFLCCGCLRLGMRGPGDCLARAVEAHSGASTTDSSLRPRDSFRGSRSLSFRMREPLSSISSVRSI

[6] = target: recombinant human S1PR1 membranes (Homo sapiens, UniProt P21453); assay: biochemical
[7] = read-out: IC50 S1PR5, [^32P]S1P competition, recombinant human S1PR5 membrane

Chain of UniProt Q9H228 (Q9H228 whole entry): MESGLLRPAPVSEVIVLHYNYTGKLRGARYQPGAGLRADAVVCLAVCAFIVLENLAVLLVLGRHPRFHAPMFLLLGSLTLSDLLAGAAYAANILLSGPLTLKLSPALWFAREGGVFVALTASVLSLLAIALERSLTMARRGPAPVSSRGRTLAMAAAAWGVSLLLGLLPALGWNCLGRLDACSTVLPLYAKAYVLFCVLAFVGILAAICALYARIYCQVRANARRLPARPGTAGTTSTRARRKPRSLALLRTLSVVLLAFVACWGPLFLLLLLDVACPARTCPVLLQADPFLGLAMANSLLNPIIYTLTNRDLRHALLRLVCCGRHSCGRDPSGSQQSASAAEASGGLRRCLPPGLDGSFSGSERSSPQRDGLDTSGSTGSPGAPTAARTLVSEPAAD
Chain of UniProt O95136 (O95136 whole entry): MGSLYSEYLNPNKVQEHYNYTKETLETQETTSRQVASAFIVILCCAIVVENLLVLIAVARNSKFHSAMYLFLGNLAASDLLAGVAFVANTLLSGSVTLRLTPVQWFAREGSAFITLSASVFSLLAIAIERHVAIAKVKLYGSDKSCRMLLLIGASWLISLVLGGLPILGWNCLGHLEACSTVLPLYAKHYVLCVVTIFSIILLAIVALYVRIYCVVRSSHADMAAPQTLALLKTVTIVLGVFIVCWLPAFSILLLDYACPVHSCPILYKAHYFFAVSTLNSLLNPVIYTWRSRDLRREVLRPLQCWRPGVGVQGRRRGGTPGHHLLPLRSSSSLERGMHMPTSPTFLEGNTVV
Chain of UniProt P21453 (P21453 whole entry): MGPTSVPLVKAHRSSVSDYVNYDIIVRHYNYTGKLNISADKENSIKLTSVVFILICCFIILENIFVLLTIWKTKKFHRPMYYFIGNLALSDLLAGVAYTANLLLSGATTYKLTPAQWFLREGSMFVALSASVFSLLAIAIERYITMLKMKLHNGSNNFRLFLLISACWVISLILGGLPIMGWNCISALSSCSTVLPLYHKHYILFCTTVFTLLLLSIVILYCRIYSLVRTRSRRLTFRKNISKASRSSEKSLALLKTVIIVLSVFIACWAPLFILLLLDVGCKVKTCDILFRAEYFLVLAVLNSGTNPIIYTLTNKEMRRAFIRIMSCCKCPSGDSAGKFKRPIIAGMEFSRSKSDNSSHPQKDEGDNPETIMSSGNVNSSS
Chain of UniProt Q99500 (Q99500 whole entry): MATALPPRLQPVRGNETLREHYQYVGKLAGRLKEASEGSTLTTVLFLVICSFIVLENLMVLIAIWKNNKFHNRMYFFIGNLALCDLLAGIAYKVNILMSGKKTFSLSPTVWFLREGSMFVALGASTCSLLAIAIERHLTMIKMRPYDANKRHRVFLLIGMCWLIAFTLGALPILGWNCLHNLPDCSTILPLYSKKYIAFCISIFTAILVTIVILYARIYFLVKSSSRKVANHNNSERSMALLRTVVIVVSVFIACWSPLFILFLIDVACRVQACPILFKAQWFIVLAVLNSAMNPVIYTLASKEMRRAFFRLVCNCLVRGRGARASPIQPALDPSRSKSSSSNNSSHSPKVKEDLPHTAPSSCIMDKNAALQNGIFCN

Compound: COc1c(C)ccc(Nc2c(C)cc([18F])cc2C)c1C(N)=O [[^18F]TEFM78]
brain washout time [1]: ≤ 20 min

Compound: Cc1cc(OCCCCF)c(CNCCC(=O)O)c2ccccc12 [Compound 19d, 3-(((2-(4-Fluorobutoxy)-4-methylnaphthalen-1-yl)methyl)amino)propanoic acid]
IC50 [2]: > 0.9 µM

Compound: Cc1cc(O[C@H]2CC[C@H](C(C)(C)C)CC2)c(CN2CCC(C(=O)O)CC2)c2cc(F)ccc12 [Compound 12c, 1-((2-(((trans)-4-(tert-Butyl)cyclohexyl)oxy)-7-fluoro-4-methylnaphthalen-1-yl)methyl) piperidine-4-carboxylic acid]
IC50 [2]: 0.2 ± 0.0366 µM

Compound: COc1cc(O[C@H]2CC[C@H](C(C)(C)C)CC2)c(CN2CCC(C(=O)O)CC2)c2ccccc12 [Compound 7b, 1-((2-(((trans)-4-(tert-Butyl)cyclohexyl)oxy)-4-methoxynaphthalen-1-yl)methyl)piperidine-4-carboxylic acid]
IC50 [2]: > 1 µM

Compound: CNS(=O)(=O)CCCNCc1c(O[C@H]2CC[C@H](C(C)(C)C)CC2)cc(C)c2ccccc12 [Compound 16k, 3-(((2-(((trans)-4-(tert-Butyl)cyclohexyl)oxy)-4-methylnaphthalen-1-yl)methyl)amino)-N-methyl propane-1-sulfonamide]
IC50 [2, 7]: > 1 µM

Compound: Cc1cc(O[C@H]2CC[C@H](C(C)(C)C)CC2)c(CN2CCC(C(=O)O)CC2)c2ccccc12 [Compound 7, 1-((2-(((trans)-4-(tert-Butyl)cyclohexyl)oxy)-4-methylnaphthalen-1-yl)methyl)piperidine-4-carboxylic acid, reference compound]
IC50 [3]: > 1 µM
IC50 [4]: > 1 µM
IC50 [5]: > 1 µM
IC50 [6]: > 1 µM

Compound: Cc1cc(O[C@H]2CC[C@H](C(C)(C)C)CC2)c(CN(C)CCC(=O)O)c2ccccc12 [Compound 16e]
IC50 [2, 7]: 0.475 ± 0.0274 µM

Compound: Cc1cc(O[C@H]2CC[C@H](C(C)(C)C)CC2)c(CNCC(F)C(=O)O)c2ccccc12 (stereo partly drawn) [Compound 16c, 3-(((2-(((trans)-4-(tert-Butyl)cyclohexyl)oxy)-4-methylnaphthalen-1-yl)methyl)amino)-2-fluoropropanoic acid]
IC50 [2]: 0.252 ± 0.0343 µM

Compound: Cc1cc(O[C@H]2CC[C@H](C(C)(C)C)CC2)c(CNCCC(=O)O)c2ccccc12 [Compound 16a, 3-(((2-(((trans)-4-(tert-Butyl)cyclohexyl)oxy)-4-methylnaphthalen-1-yl)methyl)amino) propanoic acid]
IC50 [3]: > 1 µM
IC50 [4]: > 1 µM
IC50 [5]: > 1 µM
IC50 [6]: > 1 µM

Compound: Cc1cc(O[C@H]2CC[C@H](C(C)(C)C)CC2)c(CN(C)CCCC(=O)O)c2ccccc12 [Compound 16d, 4-(((2-(((trans)-4-(tert-Butyl)cyclohexyl)oxy)-4-methylnaphthalen-1-yl)methyl)(methyl)amino) butanoic acid]
IC50 [2]: 0.348 ± 0.0288 µM

Other lines, results leading:

IC50 [2]: > 1 µM
Compound: Cc1cc(O[C@H]2CC[C@H](C(C)(C)C)CC2)c(CN2CCN(CCF)CC2)c2ccccc12 [Compound 16p, 1-((2-(((trans)-4-(tert-Butyl)cyclohexyl)oxy)-4-methylnaphthalen-1-yl)methyl)-4-(2-fluoroethyl)piperazine]

IC50 [2]: > 1 µM
Compound: COc1cc(C)c2ccccc2c1CNCCC(=O)O [Compound 19a, 3-(((2-Methoxy-4-methylnaphthalen-1-yl)methyl)amino)propanoic acid]

IC50 [2, 7]: > 1 µM
Compound: Cc1cc(O[C@H]2CC[C@H](C(C)(C)C)CC2)c(CN2CCN(C)CC2)c2ccccc12 [Compound 16o]

IC50 [2]: > 1 µM
Compound: Cc1cc(OCCCF)c(CNCCC(=O)O)c2ccccc12 [Compound 19c, 3-(((2-(3-Fluoropropoxy)-4-methylnaphthalen-1-yl)methyl)amino)propanoic acid]

IC50 [2]: > 1 µM
Compound: Cc1cc(OCCF)c(CNCCC(=O)O)c2ccccc12 [Compound 19b, 3-(((2-(2-Fluoroethoxy)-4-methylnaphthalen-1-yl)methyl)amino)propanoic acid]

IC50 [2, 7]: 0.312 ± 0.0435 µM
Compound: Cc1cc(O[C@H]2CC[C@H](C(C)(C)C)CC2)c(CNCCCOCCF)c2ccccc12 [Compound 16n]

IC50 [2]: > 1 µM
Compound: CSCCCNCc1c(O[C@H]2CC[C@H](C(C)(C)C)CC2)cc(C)c2ccccc12 [Compound 16m, N-((2-(((trans)-4-(tert-Butyl)cyclohexyl)oxy)-4-methylnaphthalen-1-yl)methyl)-3-(methylthio) propan-1-amine]

IC50 [2, 7]: 0.324 ± 0.0615 µM
Compound: Cc1cc(O[C@H]2CC[C@H](C(C)(C)C)CC2)c(CNCC(O)CF)c2ccccc12 (some centres unmarked) [Compound 16i]

IC50 [2]: > 1 µM
Compound: Cc1cc(OCCCCCF)c(CNCCC(=O)O)c2ccccc12 [Compound 19e, 3-(((2-((5-Fluoropentyl)oxy)-4-methylnaphthalen-1-yl)methyl)amino)propanoic acid]

IC50 [2]: 0.3 ± 0.066 µM
Compound: Cc1cc(O[C@H]2CC[C@H](C(C)(C)C)CC2)c(CNCC(F)CO)c2ccccc12 (stereo partly drawn) [Compound 16h, 3-(((2-(((trans)-4-(tert-Butyl)cyclohexyl)oxy)-4-methylnaphthalen-1-yl)methyl)amino)-2-fluoropropan-1-ol]
